Hit rate of the full screen: of about 360,000 compounds, about 7,500 (2.1%) were called active. Inconclusive means that the source gave no clear call. Such entries were picked first, then a sample of the others. Calls come from the whole dose curve; as a rule, active = well fitted cell-killing curve with a large enough effect; inconclusive = small, poorly fitted or top-dose-only effect, or effect the other way, or another doubt; inactive = no such curve, though single readings can be large or run the other way. Potencies of inconclusive entries are left out as doubtful fits.
Test: qHTS for induction of synthetic lethality in tumor cells producing 2HG: qHTS for the HT-1080-IDH1KD cell line;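 for activity, negative = toxicity: 0% = DMSO wells and -100% = cell-free medium wells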
Settings: HT-1080 IDH1 knockdown viability, ATP luminescence, 48 h; activity, negative = toxicity: at 46.1 µM (top of the series) unless noted
Procedure, shortened: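 In this qHTS, HT-1080 cells depleted of IDH1 are exposed for 48 h at 37 °C to compound titrations. Toxicity is scored from CellTiter-Glo luminescence, with DMSO as full viability and medium alone as none.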
In the case of `Cc1cc(N)n2nc(-c3ccccc3)cc2n1`, the Potency is reported as inconclusive [cytotoxic, single point]. In the case of `CC(Sc1nc(N)cc(N)n1)C(=O)NCCC1=CCCCC1` (stereo unspecified), the “activity, negative = toxicity” value is reported as inactive: -2.08%. In the case of `CC(CCc1ccc(O)cc1)NC(c1ccccc1)c1ccc(Cl)cc1` (stereo unspecified), the Potency is reported as active: 7.31 µM. For `CC(=O)N(\C=C/C=C/C=C1\Sc2ccccc2C1=O)c1ccccc1`, the Potency was inconclusive [cytotoxic, full curve, poor fit]. With `O=C(CSc1nnc(Nc2ccccc2)s1)NC1CCS(=O)(=O)C1` (stereo unspecified) the “activity, negative = toxicity” value was inactive: 11.5%. With `c1ccc2c(OCCCCN3CCOCC3)cccc2c1` the “activity, negative = toxicity” value was inactive: -2.77%. In the case of `CC(Oc1ccc2ccccc2c1)C(=O)NNC(=S)NC(=O)c1ccco1` (stereo unspecified), the Potency is reported as inconclusive [cytotoxic, partial curve]. With `CCOc1ccc(N(CC(=O)Nc2cc(Cl)ccc2C)S(C)(=O)=O)cc1` the Potency was inconclusive [cytotoxic, single point]. For `CC(C)C[C@@H](COCc1cccc(Cl)c1)N1CCN(C(=O)c2cccc(C(F)(F)F)c2)CCC1=O`, the Potency was inconclusive [cytotoxic, single point]. For `Cc1noc(C)c1S(=O)(=O)Nc1ccc(C(=O)N2CCN(c3cccc(Cl)c3)CC2)cc1`, the “activity, negative = toxicity” value was inactive: -22.6%. For `Cc1c(C(=O)N2CC[C@@H](N3CCC(O)CC3)[C@H](O)C2)[nH]c2ccc(Cl)cc12`, the Potency was inconclusive [cytotoxic, single point]. With `COc1ccc(CN(Cc2ccccc2)C(C)=O)cc1COc1ccc(NC(C)=O)cc1` the Potency was inconclusive [cytotoxic, single point]. With `CN(Cc1ccccc1C(F)(F)F)C(=O)C1CCC(=O)N(CC2CCCCC2)C1` (stereo unspecified) the “activity, negative = toxicity” value was inactive: -2.16%. With `OC(c1cccc(Cl)c1)c1nc(-c2ccc(Cl)cc2)cs1` (stereo unspecified) the Potency was inconclusive [cytotoxic, single point]. With `COC(=O)c1sc(NC(=O)c2ccco2)nc1C` the “activity, negative = toxicity” value was inactive: -4.9%. In the case of `Cc1ccccc1OCC(=O)N/N=C/c1cn(Cc2ccccc2)c2ccccc12`, the Potency is reported as inconclusive [cytotoxic, partial curve]. In the case of `CC(C)c1cccc(-c2csc(C(C)(O)c3ccccc3)n2)c1` (stereo unspecified), the Potency is reported as inconclusive [cytotoxic, single point]. For `CN(C)c1ccc2nc3ccc(=O)cc-3sc2c1`, the Potency was inconclusive [cytotoxic, single point]. For `CCOC(=O)Sc1nc2ncncc2[nH]1`, the “activity, negative = toxicity” value was inactive: -6.58%. For `COc1cc(-c2cc3nc(NCc4cccc(Cl)c4)ccn3n2)cc(OC)c1OC`, the Potency was active: 9.2 µM. In the case of `O=C(Nc1ccccc1N1CCN(C(=O)c2ccc(Cl)cc2)CC1)c1ccc([N+](=O)[O-])o1`, the Potency is reported as inconclusive [cytotoxic, single point].

— PubChem BioAssay AID686971 (National Center for Advancing Translational Sciences (NCATS), 2013)
Potency is the fitted concentration of half-maximal effect; tags give direction and shape of the fitted curve.
